The target in one assay is T1, F*-p40.
T1 chain: APTYSPPPPP
The assay is described as follows: fluorescence anisotropy. (In general: Polarisation of emitted light reports the rotation of a fluorescent probe.)

The target in another assay is T2, F*-PLLP.
T2 chain: LASRPLPLLP
The assay is described as follows: fluorescence anisotropy.

Some results are limits rather than exact numbers.

B1: C100W Abl SH3 SH3 (protein)
chain: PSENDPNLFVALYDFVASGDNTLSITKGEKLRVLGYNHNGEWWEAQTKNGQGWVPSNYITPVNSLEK
As to B1, the Kd in the assay with F*-p40 is 55 µM; in the assay with F*-PLLP, greater than 1000 µM.

Broadly, the Kd is the concentration at which binding is half-saturated.

(Values after article PMC11653366 (2024).)
